Publication PMC7948425
These are yes or no findings as the source states them, for the method shown. In cells and extracts the contact can be indirect. Some results given as binding are weak or reduced against the parent protein; the word gives no strength. For some of these results: Where a sequence is shown, tags or fusion partners need not be part of it.

Amino acid sequences for entries named in this document (tags omitted).
UniProt Q9UQE7: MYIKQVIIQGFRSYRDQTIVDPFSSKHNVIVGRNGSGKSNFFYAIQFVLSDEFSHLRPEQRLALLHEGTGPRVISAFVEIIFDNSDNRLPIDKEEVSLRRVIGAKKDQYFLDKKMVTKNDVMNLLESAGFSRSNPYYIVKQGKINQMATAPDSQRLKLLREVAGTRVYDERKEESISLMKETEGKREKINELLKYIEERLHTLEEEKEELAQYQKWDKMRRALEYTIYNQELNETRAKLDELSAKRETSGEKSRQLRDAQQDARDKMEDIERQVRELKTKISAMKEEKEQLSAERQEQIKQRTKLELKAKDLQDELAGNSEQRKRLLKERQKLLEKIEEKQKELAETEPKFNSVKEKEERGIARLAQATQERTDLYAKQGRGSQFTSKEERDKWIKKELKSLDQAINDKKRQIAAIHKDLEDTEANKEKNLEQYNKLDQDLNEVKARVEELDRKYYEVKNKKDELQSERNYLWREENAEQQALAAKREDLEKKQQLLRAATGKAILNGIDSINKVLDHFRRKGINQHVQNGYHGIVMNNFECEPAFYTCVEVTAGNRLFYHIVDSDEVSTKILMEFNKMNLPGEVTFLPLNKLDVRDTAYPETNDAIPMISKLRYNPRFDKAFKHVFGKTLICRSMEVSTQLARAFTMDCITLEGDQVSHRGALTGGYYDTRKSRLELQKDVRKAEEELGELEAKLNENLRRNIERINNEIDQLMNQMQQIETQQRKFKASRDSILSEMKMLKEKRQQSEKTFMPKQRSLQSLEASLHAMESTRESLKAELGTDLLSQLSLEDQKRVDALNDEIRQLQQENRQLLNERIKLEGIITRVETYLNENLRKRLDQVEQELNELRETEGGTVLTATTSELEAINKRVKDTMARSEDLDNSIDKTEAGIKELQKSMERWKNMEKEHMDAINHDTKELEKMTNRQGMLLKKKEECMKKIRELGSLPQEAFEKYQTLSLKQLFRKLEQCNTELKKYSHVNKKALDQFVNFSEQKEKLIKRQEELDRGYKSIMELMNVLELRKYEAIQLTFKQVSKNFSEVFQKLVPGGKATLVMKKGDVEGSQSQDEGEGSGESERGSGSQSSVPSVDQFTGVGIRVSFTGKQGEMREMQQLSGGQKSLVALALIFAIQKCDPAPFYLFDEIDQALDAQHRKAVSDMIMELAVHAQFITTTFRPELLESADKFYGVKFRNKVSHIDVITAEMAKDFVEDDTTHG

Legend:
[1] = molecular target: T1, PDS5A with FLAG/streptavidin binding peptide dual epitope tag, from the gene-edited endogenous allele (human (endogenous in HCT116)) (UniProt Q29RF7); assay: co-IP; dual-affinity purification (FLAG/SBP) from nuclear extracts (1 or 2 mg) of HCT116 epitope-tagged derivatives and parental cells, Western blot with USP13 and FLAG antibodies
T1 sequence: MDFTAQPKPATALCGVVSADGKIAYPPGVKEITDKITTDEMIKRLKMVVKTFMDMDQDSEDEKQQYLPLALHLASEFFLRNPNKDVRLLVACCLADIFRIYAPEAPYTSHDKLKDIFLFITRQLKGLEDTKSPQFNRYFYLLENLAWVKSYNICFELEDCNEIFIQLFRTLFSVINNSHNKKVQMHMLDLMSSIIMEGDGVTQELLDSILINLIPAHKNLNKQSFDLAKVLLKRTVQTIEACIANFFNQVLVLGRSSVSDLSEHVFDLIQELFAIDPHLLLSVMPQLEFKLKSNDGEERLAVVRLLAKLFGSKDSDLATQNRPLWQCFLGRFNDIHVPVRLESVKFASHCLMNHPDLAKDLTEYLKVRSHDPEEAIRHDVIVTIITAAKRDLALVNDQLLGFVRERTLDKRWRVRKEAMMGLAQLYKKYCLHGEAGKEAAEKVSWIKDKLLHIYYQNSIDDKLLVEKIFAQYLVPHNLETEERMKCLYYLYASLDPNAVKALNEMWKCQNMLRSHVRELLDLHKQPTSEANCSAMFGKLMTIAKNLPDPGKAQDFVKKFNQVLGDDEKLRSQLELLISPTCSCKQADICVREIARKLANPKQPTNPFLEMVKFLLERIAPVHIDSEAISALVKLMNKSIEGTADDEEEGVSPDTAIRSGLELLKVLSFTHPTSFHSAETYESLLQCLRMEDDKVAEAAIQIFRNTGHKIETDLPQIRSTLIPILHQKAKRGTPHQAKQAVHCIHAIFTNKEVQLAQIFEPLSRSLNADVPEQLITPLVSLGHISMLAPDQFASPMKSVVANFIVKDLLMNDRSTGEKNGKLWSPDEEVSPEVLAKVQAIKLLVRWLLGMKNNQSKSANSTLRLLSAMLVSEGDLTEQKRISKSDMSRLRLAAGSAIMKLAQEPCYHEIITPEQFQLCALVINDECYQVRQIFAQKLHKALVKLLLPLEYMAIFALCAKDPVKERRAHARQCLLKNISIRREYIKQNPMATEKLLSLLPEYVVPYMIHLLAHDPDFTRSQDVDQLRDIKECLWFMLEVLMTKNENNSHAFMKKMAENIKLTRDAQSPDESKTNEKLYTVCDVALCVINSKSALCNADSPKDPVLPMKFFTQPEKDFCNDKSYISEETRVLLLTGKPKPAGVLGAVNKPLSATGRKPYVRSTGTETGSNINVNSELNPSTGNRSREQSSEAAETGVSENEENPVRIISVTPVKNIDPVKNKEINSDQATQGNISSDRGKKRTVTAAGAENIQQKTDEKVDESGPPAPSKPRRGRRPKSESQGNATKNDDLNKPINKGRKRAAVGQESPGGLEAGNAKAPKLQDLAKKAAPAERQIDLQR

[2] = molecular target: SMC3 with FLAG/streptavidin binding peptide dual epitope tag, from the gene-edited endogenous allele (human (endogenous in HCT116)) (UniProt Q9UQE7); assay: as above
[3] = molecular target: T2, STAG2 with FLAG/streptavidin binding peptide dual epitope tag, from the gene-edited endogenous allele (human (endogenous in HCT116)) (UniProt Q8N3U4); assay: as above
T2 sequence: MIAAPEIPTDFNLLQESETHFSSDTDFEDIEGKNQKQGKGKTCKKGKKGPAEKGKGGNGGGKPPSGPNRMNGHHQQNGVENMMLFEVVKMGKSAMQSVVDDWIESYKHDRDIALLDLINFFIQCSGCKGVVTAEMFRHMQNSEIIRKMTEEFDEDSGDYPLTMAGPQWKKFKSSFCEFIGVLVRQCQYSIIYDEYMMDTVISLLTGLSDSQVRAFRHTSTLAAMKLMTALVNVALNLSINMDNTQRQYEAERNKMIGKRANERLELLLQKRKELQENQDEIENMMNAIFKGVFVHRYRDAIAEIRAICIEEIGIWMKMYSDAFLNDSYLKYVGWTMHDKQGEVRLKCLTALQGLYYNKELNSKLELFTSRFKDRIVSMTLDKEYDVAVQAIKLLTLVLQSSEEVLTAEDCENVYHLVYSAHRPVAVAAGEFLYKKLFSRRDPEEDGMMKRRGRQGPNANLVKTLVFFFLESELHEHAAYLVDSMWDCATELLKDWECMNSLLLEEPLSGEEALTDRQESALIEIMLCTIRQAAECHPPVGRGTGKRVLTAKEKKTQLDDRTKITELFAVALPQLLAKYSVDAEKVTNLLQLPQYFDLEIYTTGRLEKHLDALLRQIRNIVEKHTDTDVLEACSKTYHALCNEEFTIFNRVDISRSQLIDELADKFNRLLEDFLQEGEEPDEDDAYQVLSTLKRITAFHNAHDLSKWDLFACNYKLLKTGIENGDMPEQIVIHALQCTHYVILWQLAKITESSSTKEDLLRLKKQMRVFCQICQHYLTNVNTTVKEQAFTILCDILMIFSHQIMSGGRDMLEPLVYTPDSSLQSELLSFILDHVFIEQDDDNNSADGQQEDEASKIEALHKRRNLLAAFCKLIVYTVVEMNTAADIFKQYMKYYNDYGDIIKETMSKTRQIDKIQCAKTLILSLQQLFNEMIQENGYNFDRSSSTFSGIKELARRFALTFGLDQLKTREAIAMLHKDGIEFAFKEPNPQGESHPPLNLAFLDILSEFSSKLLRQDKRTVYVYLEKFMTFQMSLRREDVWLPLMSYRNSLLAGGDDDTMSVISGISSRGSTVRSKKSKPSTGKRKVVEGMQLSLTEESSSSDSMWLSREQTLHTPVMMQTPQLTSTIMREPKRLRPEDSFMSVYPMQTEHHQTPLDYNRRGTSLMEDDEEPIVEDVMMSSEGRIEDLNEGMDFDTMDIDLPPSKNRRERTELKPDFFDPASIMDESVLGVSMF

[4] = molecular target: SMC3, endogenous (human (endogenous in HCT116, 293T, HeLa, RPE-hTERT)) (UniProt Q9UQE7); assay: co-IP; SMC3 antibody (or IgG control) on whole cell lysates (500 μg) of 293T, HCT116, HeLa and RPE-hTERT cells, TBS with 0.1% NP-40, 4 °C overnight, protein A/G agarose; Western blot with USP13 and STAG2 antibodies; also 293T cells treated 20 h with DMSO, hydroxyurea, RO-3306 or nocodazole

Measured: binding

B1: Ubiquitin-Specific Protease 13 (USP13), endogenous (enzyme, UniProt Q92995 1-863)
chain: MQRRGALFGMPGGSGGRKMAAGDIGELLVPHMPTIRVPRSGDRVYKNECAFSYDSPNSEGGLYVCMNTFLAFGREHVERHFRKTGQSVYMHLKRHVREKVRGASGGALPKRRNSKIFLDLDTDDDLNSDDYEYEDEAKLVIFPDHYEIALPNIEELPALVTIACDAVLSSKSPYRKQDPDTWENELPVSKYANNLTQLDNGVRIPPSGWKCARCDLRENLWLNLTDGSVLCGKWFFDSSGGNGHALEHYRDMGYPLAVKLGTITPDGADVYSFQEEEPVLDPHLAKHLAHFGIDMLHMHGTENGLQDNDIKLRVSEWEVIQESGTKLKPMYGPGYTGLKNLGNSCYLSSVMQAIFSIPEFQRAYVGNLPRIFDYSPLDPTQDFNTQMTKLGHGLLSGQYSKPPVKSELIEQVMKEEHKPQQNGISPRMFKAFVSKSHPEFSSNRQQDAQEFFLHLVNLVERNRIGSENPSDVFRFLVEERIQCCQTRKVRYTERVDYLMQLPVAMEAATNKDELIAYELTRREAEANRRPLPELVRAKIPFSACLQAFSEPENVDDFWSSALQAKSAGVKTSRFASFPEYLVVQIKKFTFGLDWVPKKFDVSIDMPDLLDINHLRARGLQPGEEELPDISPPIVIPDDSKDRLMNQLIDPSDIDESSVMQLAEMGFPLEACRKAVYFTGNMGAEVAFNWIIVHMEEPDFAEPLTMPGYGGAASAGASVFGASGLDNQPPEEIVAIITSMGFQRNQAIQALRATNNNLERALDWIFSHPEFEEDSDFVIEMENNANANIISEAKPEGPRVKDGSGTYELFAFISHMGTSTMSGHYICHIKKEGRWVIYNDHKVCASERPPKDLGYMYFYRRIPS
binds: all assays above
